Publication PMC4336329 (PLoS ONE, 2015)
Out of some 310,000 compounds screened, about 2,200 (0.71%) showed an effect of 50% or more. Effects have a minus sign here. The list shows a part of the results.

The compounds below were run against human ether-à-go-go-related gene (hERG) potassium channel (human, UniProt Q12809) (assay: primary screen, population patch clamp on CHO cells stably expressing hERG).
human ether-à-go-go-related gene (hERG) potassium channel, sequence (Q12809 whole entry, looked up): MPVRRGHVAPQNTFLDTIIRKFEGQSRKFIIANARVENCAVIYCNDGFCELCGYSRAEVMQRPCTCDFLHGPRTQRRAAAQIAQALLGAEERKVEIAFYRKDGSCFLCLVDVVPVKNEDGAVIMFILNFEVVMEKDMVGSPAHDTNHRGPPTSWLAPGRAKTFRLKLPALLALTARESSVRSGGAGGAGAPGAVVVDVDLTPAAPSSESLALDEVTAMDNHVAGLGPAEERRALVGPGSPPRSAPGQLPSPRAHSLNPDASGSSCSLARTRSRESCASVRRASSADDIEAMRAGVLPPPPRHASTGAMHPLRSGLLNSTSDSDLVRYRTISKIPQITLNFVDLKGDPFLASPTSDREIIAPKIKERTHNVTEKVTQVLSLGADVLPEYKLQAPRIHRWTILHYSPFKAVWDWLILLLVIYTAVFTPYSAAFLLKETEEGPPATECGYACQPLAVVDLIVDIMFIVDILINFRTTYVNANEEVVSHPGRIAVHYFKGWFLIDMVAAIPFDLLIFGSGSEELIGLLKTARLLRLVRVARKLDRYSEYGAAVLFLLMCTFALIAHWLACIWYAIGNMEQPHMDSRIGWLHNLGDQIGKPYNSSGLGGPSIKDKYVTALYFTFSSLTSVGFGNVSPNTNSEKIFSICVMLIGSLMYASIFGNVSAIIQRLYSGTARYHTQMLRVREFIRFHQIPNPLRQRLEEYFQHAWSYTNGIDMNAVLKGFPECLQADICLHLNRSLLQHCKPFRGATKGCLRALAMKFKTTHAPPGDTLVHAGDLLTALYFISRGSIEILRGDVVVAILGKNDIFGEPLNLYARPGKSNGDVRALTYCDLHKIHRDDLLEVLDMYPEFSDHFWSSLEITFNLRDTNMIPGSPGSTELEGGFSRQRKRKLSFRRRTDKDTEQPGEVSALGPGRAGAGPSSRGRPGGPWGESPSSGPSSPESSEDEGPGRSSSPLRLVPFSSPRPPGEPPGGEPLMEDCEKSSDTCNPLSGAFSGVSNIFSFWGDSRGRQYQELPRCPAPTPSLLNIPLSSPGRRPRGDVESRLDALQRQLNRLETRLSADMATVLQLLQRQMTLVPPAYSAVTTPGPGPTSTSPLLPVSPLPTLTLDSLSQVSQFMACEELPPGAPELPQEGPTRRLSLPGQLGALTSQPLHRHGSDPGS

Compound	hERG current change (%, negative = inhibition) at 1uM [%]
COCc1cc(Sc2ccc(OC)cc2)nc(-c2ccccc2)n1	16.2
C=CCNC(=O)c1ccc2c3n(nc2c1)-c1ccc(C)cc1CO3	-1.03
O=c1[nH]c2ccccc2c(O)c1Cc1ccccc1	4.59
Cn1c(SCC(=O)Nc2nccs2)nnc1-c1ccncc1	-1.28
O=C(Nc1ccccc1)c1nc[nH]c1C(=O)N1CCc2ccccc2C1	11.9
Cn1c(O)c(N=NC(=O)c2cccc(S(=O)(=O)N3CCCCC3)c2)c2ccccc21	12.1
CCCNC(=O)c1cccc(S(=O)(=O)N2CC3(C)CC2CC(C)(C)C3)c1 (centres unmarked)	-5.48
CCN1C(=O)C(=O)N(CC(=O)c2[nH]c(C)c(C(C)=O)c2C)C1=O	8.54
CC(=O)c1cccc(NC(=O)NCc2ccco2)c1	7.85
Oc1ccccc1C=NCCN=Cc1ccccc1O	7.21
CCOC(=O)c1ccc(N=Cc2c(O)n(-c3ccc(OC)cc3)c(=S)[nH]c2=O)cc1	19.2
COc1ccccc1NC(=O)Cn1cnc2c(oc3ccccc32)c1=O	3.35
O=C(CSC1=NS(=O)(=O)c2ccccc2N1)Nc1ccccc1F	12.6
O=[N+]([O-])c1ccccc1S(=O)(=O)NC1CCCC1	12.5
CSc1ccc(Cl)c(C(=O)OCC(=O)N(C)CCC#N)c1	5.97
CCOC(=O)C(C)(CC)NC(=O)CSP(=S)(OCC)OCC (centres unmarked)	4.98
COC(=O)c1sc(NC(=O)c2oc3ccccc3c2C)nc1C	9.32
c1ccc(Cc2nnc(N3CCCCC3)c3ccccc23)cc1	8.53
COc1ccc(NC(=S)N2CCN(C(=O)c3ccco3)CC2)cc1OC	11.1
Cc1[nH]c(-c2ccc(F)cc2)cc1C(=O)N1CCN(c2ccccc2)CC1	-29
O=C(CCC(=O)Nc1ccccc1Cl)NNS(=O)(=O)c1ccc(Cl)cc1	7.75
N#Cc1ccc(NC(=O)CCc2ccc(S(=O)(=O)N3CCOCC3)cc2)cc1	-13.3
COc1ccccc1CN1CCNC(=O)C1CC(=O)NC1Cc2ccccc2C1 (centres unmarked)	5.71

Compound	hERG current change (%, negative = inhibition) at 1uM [%]
O=C(/C=C/NNC(=O)c1ccc(Br)cc1)c1ccccc1	18.8
COc1ccccc1/C=C1\CCC(C2CCCC2)C1=O (centres unmarked)	14.6
O=C(NC1CC2CCCC(C1)N2Cc1cccs1)c1ccc([N+](=O)[O-])cc1 (centres unmarked)	-78.6
COc1ccc(N2CCN(CC(=O)NC(=O)NC(C)(C)C)CC2)cc1	8.73
CS(=O)(=O)N1CCN(Cc2cc(=O)n3ccsc3n2)CC1	15.2
O=C(NN=C(Cc1ccccc1)Cc1ccccc1)c1ccccc1O	5.77
CC1(NC(=O)/C=C/c2nc3ccccc3s2)CCS(=O)(=O)C1 (centres unmarked)	5.18
OC(COC(c1ccc(Cl)cc1)c1ccc(Cl)cc1)CN1CCCC1 (centres unmarked)	-75.2
COc1ccccc1C(=O)NC(=O)OCCn1c(C)cnc1[N+](=O)[O-]	-9.6
CCOC(=O)C1=C(Cc2ccc(C)cc2)C(=O)c2ccccc2C1=O	13.4
CCN1C(=O)C(CC(=O)Nc2ccc(OC)cc2)N(CCc2ccccc2)C1=S (centres unmarked)	13.3
CC(C)C(c1nnnn1C1CCCCC1)N1CCN(c2ncccn2)CC1 (centres unmarked)	6.99
C=CCNc1nc(NC(C)(C)CO)nc(OCC)n1	7.18
CC(Sc1nnc(-c2ccncc2)n1C)C(=O)Nc1nccs1 (centres unmarked)	12.7
CCOC(=O)c1c(NC(=O)C(c2ccccc2)c2ccccc2)sc2c1C1CCN2CC1.Cl	9.83
COc1ccc2c(c1)N(C)C(=O)CC(c1ccccc1)=N2	1.78
CSCCC(C(=O)N(C)CC(=O)Nc1cccc(F)c1)N1C(=O)c2ccccc2C1=O (centres unmarked)	4.88
O=C1CCC(=O)O1	11
CCN(CC)CCCNC(=O)c1ccc2c(=O)n(Cc3ccc4c(c3)OCO4)c(=S)[nH]c2c1	-2.54
CC1(C)C2([N+](=O)[O-])CN3CC1([N+](=O)[O-])CN(C2)C3c1ccc(O)c(O)c1 (centres unmarked)	12.2
c1cc(CSc2nnc(-c3ccc4c(c3)OCO4)o2)ccn1	10.2
CC(C)c1ccc(NC(=O)c2cc(S(=O)(=O)N3CCCCC3)c[nH]2)cc1	10.3
Cn1ccsc1=NC(=O)c1ccc(S(C)(=O)=O)cc1	14.4

Compound	hERG current change (%, negative = inhibition) at 1uM [%]
Cn1c(=O)c2[nH]c(-c3ccccc3)c(O)c2n(C)c1=O	16.6
COc1cc(NC(=O)c2ccccc2F)ccc1NC(=O)c1cc2ccccc2o1	10.5
CCCN(CC#CC(O)(c1ccccc1)c1cccnc1)CCC (centres unmarked)	-14.8
Cc1cc(O)c(CN2CC=C(c3ccccc3)CC2)cc1C(C)C	1.93
Cc1ccc(NC(=O)CN2C(=O)NC3(CCCC3)C2=O)c(Cl)c1	16.1
COC(=O)c1cc(C(=O)OC)cc(S(=O)(=O)Nc2ccc(Cl)c(N)c2)c1	10.4
CC(OC(=O)c1ccccc1NCc1ccco1)C(=O)Nc1ncc(Cl)cc1Cl (centres unmarked)	12.6
COc1cc(NC(=O)c2ccnc(N)c2)cc(C(=O)Nc2cccc(C(F)(F)F)c2)c1	11.5
CC(C)(C)c1oc(C(=O)O)cc1CN1CCOCC1.Cl	15.6
CCOC(=O)[C@H]1[C@H]2COc3ccccc3[C@@H]2N2C(=O)c3cc(Cl)ccc3NC(=O)[C@@]12C	12.3
O=S(=O)(/N=C(/Nc1cccc2ccccc12)c1ccccc1)c1ccccc1	8.64
CCOCCCNC(=S)N1CCC(NC(=O)C23CC4CC(CC(C4)C2)C3)CC1	7.14
CN(C)c1ccc(C(=O)C(O)c2ccc(C(C)(C)C)cc2)cc1 (centres unmarked)	8.3
CCC1CCCCN1C(=O)COC(=O)c1cc(Br)ccc1Cl (centres unmarked)	12.3
CC(C)CNS(=O)(=O)c1ccc(CCC(=O)NCC2CCCO2)cc1 (centres unmarked)	9.89
CC(CC(=O)N1CCN(S(=O)(=O)c2ccc(Cl)cc2)CC1)n1cncn1 (centres unmarked)	9.75
O=C(c1cc(F)ccc1F)C1CCCN(C(=O)c2ccc3nccnc3c2)C1 (centres unmarked)	7.93
O=C(OCCCCN1C(=O)c2ccccc2C1=O)c1ccc(S(=O)(=O)N2CCCC2)cc1	10
Cc1ccc(NC(=S)NCc2ccc3c(c2)OCO3)cc1C	2.64
O=C(CN1C(=O)CCSc2ccc(S(=O)(=O)N3CCCC3)cc21)Nc1ccccc1Cl	15.6
CC(C)Cc1ccc(C#N)c(SCC(N)=O)n1	2.11
CC(=O)c1ccc2c3c(cccc13)C(=O)N(CCc1ccccc1)C2=O	10.9
COc1ccc(Cn2nnnc2C(c2cc3cc(C)ccc3[nH]c2=O)N2CCN(C)CC2)cc1 (centres unmarked)	-4.56

Compound	hERG current change (%, negative = inhibition) at 1uM [%]
c1ccc(-c2ccc3[nH]ccc3c2)cc1	7.13
CCCc1nc(SCC(=O)NNC(=O)c2ccc(OC)cc2)c2ccccc2n1	3.84
CC(OC(=O)c1cc(S(=O)(=O)Nc2ccc(F)cc2)ccc1Cl)C(=O)Nc1ccc2c(c1)OCCO2 (centres unmarked)	8.96
CCCn1c(=O)[nH]c(=O)c2c(C(F)(F)F)cc(-c3ccc(C)cc3)nc21	15.2
O=C(CCCc1ccccc1)Nc1ccccc1[N+](=O)[O-]	14.8
COc1cc(-c2noc(C3CCCN(C(=O)c4ccccc4)C3)n2)cc(OC)c1OC (centres unmarked)	1.93
O=C(N/N=C/C1CCCCC1)c1cc(Cl)ccc1O	2.28
O=C(CNC(=O)c1ccc(S(=O)(=O)N2CCCC2)cc1)N/N=C/c1ccc(F)cc1	8.22
O=C(CCC(=O)N1CCN(c2ccc(F)cc2)CC1)N1CCN(c2ccc(F)cc2)CC1	-15.1
CC(=O)c1cc2c(C)cc(=O)oc2cc1O	11.6
O=C(CCN1C(=O)/C(=C\c2ccccc2)SC1=S)N1CCOCC1	17.4
CC(=O)c1cccc(NC(=O)CN2C(=O)c3ccccc3C2=O)c1	12.4
O=C1CN(C(=O)c2ccccc2C(=O)O)c2ccccc2N1	13.2
O=[N+]([O-])c1ccc(Nc2ccc3ccccc3c2)nc1	8.78
COc1ccc(OC)c(NC(=O)CCNC(=O)c2ccco2)c1	7.57
O=C(NC1CCN(Cc2ccccc2)CC1)C(NS(=O)(=O)c1cccc2nsnc12)c1ccccc1 (centres unmarked)	-12.1
CCCCOC(=O)C(C)Oc1ccc(=O)n(-c2ccccc2)n1 (centres unmarked)	5.48
O=C(NNS(=O)(=O)c1ccccc1[N+](=O)[O-])c1cccc(Br)c1	9.91
COc1ccccc1CN1C[C@@H]2C[C@@H](c3ccc(C)cc3)N3CCC[C@@]23C1=O	-0.663
O=C(Cc1ccc(Cl)cc1)Nc1ncccn1	11.1
